This assay concerns NCI-H719 tumor spheroids, viability. As to the kind of experiment: Anticancer human tumor NCI-H719 cell line growth inhibition.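 For all read-outs here: spheroids exposed to compounds for seven days.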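 For viability, T/C: percent viability relative to DMSO vehicle control as 100%.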 As to conditions: spheroids with HUVEC and MSC; for viability, T/C: stronger effect = lower value. From the text: Multicellular complex tumor spheroid response to DNA repair inhibitors in combination with DNA-damaging drugs
This study explores the anticancer activities of DNA-damaging drugs and inhibitors of DNA damage repair, both as single agents and in combinations. Complex tumor spheroids comprised of malignant cells, endothelial cells and mesenchymal stem cells served as an in vitro model for human solid tumors. This model system incorporates physiologically relevant features and patient-derived or established malignant cell lines with clinically relevant genetic alterations from many tumor types. Twenty-six patient-derived or established malignant cell lines were evaluated representing sarcoma, melanoma, small cell lung cancer (SCLC), non-small cell lung cancer (NSCLC), as well as bladder, ovarian and pancreatic cancers. The concentration ranges selected for each drug and investigational agent were based upon clinically achievable concentrations if the clinical Cmax of the agent was known.
Compounds. The drugs and compounds olaparib (NSC753686), talazoparib (NSC767125), berzosertib (NSC777718), elimusertib (NSC800525), nedisertib (NSC802822), VX-984 (NSC792969), AZD-1390 (NSC803789), temozolomide (NSC362856), topotecan (NSC609699), trabectedin (NSC813783), staurosporine (NSC755774), and gemcitabine (NSC613327) were obtained from the National Cancer Institute (NCI) Developmental Therapeutics Program Chemical Repository. The FDA-approved anticancer drug set is available from the Developmental Therapeutics Program at https://dtp.cancer.gov/organization/dscb/obtaining/available_plates.htm. […] The stock solutions were prepared in dimethyl sulfoxide (DMSO, Sigma-Aldrich, St. Louis, MO, cat. D2650) at 400-fold the tested concentration and stored at -70 degrees C. Prior to their use, the stock solutions were diluted in fresh medium and the final DMSO concentration in the assay was 0.25% (v/v). All drugs and investigational agents were tested over a range starting from a high concentration at or near the clinical Cmax and decreasing in half-log increments. If the clinical Cmax for an agent had not been determined, the highest concentration tested was 10 microM.
Cell Lines. The patient-derived cancer cell (PDC) lines: 156681-154-R-J1-PDC, 283228-195-R-J1-PDC, 287954-098-R-J1-PDC, 292921-168-R-J2-PDC, 349418-098-R-PDC, 425362-245-T-J1-PDC, 556581-035-R-J1-PDC, and BL0293-F563-PDC were received from the NCI Patient-Derived Models Repository (PDMR, https://pdmr.cancer.gov). The established cell lines HS-SY-2 (RRID:CVCL_8719), MPNST, and SYO-1 (RRID:CVCL_7146) were obtained from the Sloan Kettering Institute. The alveolar soft parts sarcoma cell line ASPS-1 (RRID:CVCL_S738) was established at the NCI and grown from internal seed stocks. The following established cell lines were purchased from the American Type Culture Collection (ATCC, Manassas, VA): G-401 (ATCC, cat. CRL-1441, RRID:CVCL_0270), SW982 (ATCC, cat. HTB-93, RRID:CVCL_1734), VA-ES-BJ (ATCC, cat. CRL-2138, RRID:CVCL_1785), NCI-H719 (ATCC, cat. CRL-5837, RRID:CVCL_1582), NCI-H196 (ATCC, cat. CRL-5823, RRID:CVCL_1509), NCI-H841 (ATCC, cat. CRL-5845, RRID:CVCL_1595), NCI-H1618 (ATCC, cat. CRL-5879, RRID:CVCL_1480), NCI-H1876 (ATCC, cat. CRL-5902, RRID:CVCL_1503), DMS 114 (ATCC, cat. CRL-2066; RRID:CVCL_1174), NCI-H211 (ATCC, cat. CRL-5824; RRID:CVCL_1529), and SW 1271 (ATCC, cat. CRL-2177, RRID:CVCL_1716). The small cell lung cancer cell line COR-L88 was purchased from Sigma-Aldrich (cat. 92031917-1VL, RRID:CVCL_1141). The non-small cell lung cancer cell lines NCI-H226 (RRID:CVCL_1544) and NCI-H322M (RRID:CVCL_1557) were established at the NCI and grown from internal seed stocks. Pooled donor human umbilical vein endothelial cells (HUVEC, Lonza, cat. CC-2519) and human mesenchymal stem cells (hMSC, Lonza, cat. PT-2501) were purchased from Lonza (Walkersville, MD).
Cell Culture. All cells were maintained in an incubator at 37 degrees C and 5% CO2 with 95% humidity. […]

Structures are written as SMILES. Certain results were filed several times, with different values. This is not the full list of results. The source may hold further records. The values listed for one entry repeat one measurement across runs, samples, wells, individuals or studies. Additions like (4×) stand for listed records that agree. A date in brackets names the month of the test. Bounds are passed on as bounds.

Regarding `CNCc1ccc(-c2cc(-c3nc(-c4ccc(S(=O)(=O)C(C)C)cc4)cnc3N)on2)cc1`, the viability, T/C (compound alone 3 µM) is 26.3%, 0.2% [2019-11] and 1.38% [2019-12].

Regarding `COc1cc2c(cc1O)CCNC21CSC2c3c(OC(C)=O)c(C)c4c(c3C(COC1=O)N1C(O)C3Cc5cc(C)c(OC)c(O)c5C(C21)N3C)OCO4` (centres undefined), the viability, T/C (compound 30 pM) is on record as 89.2, 74.8, 99.7, 91.7, 72.3, 90.5, 70.9, 93.8, 92.1, 94%.

In the case of `Cn1nnc2c(C(N)=O)ncn2c1=O`, the viability, T/C is, setting by setting: (compound alone 1 µM) 73.5, 69, 48.1, 93.3, 94.7, 91.5, 81.9, 96.9, 86.1, 101%; (compound alone 3.16 µM) 102 (2×), 100, 60.6, 96.2, 98.3, 97.9, 99.6, 103, 99%; (compound alone 10 µM) 94.5, 106 (2×), 101, 96.7, 104, 96.6, 47.5, 103, 97.9%; (compound alone 31.6 µM) 57.9, 83.1, 94.9, 107, 101 (2×), 99.8, 5.75, 110, 106%; (compound alone 100 µM) 68, 88.1, 64.3, 92.9, 92.4, 87.1, 5.41, 90.4, 87.5, 97.3%. Also, the IC50 (compound alone, run of 11/07/2019) is listed as < 1 µM, > 100 µM, 9.38 µM.

With `O=C(c1cc(Cc2n[nH]c(=O)c3ccccc23)ccc1F)N1CCN(C(=O)C2CC2)CC1`, for the setting “compound alone 30 µM”, the viability, T/C was 48.6%, 6.53% [2019-11] and 12.1% [2019-12].

For the origin of these results see PubChem BioAssay AID1845212 (Molecular Pharmacology Branch, DTP, NCI, 2023).
